Each structure is given as a SMILES string. The campaign covered roughly 43,000 compounds. About 200 (0.47%) were called active. Roughly 12% stayed inconclusive and do not appear here. Calls come from the whole dose curve; as a rule, active = well fitted cell-killing curve with a large enough effect; inconclusive = small, poorly fitted or top-dose-only effect, or effect the other way; inactive = flat fitted curve, though single readings scatter. Some of the results follow.
% is set by controls: 0 for no effect and ±100 for the full control effect.

This test in a line: Cell viability qHTS assay in S16 Pmp22-F2sN cells. Note: nearly all actives have a fitted effect of over 65% in size. As to conditions: S16 Pmp22-F2sN Schwann cells viability, CellTiter-Glo, 24 h; series mostly up to 57.5 µM; activity change, negative = cytotoxicity: at the top concentration. Summed up: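 S16 Pmp22-F2sN Schwann cells (500-1,000/well) in phenol-red-free DMEM with 10% FBS received 23 nL compound by pin tool for 24 h at 37 °C. Viability was then read as CellTiter-Glo luminescence after 15 min at room temperature.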
As to `CC(=O)Nc1ccc(NC(=O)c2cc(CN3CCCC3)on2)cc1`, the “activity change, negative = cytotoxicity” value is inactive: 6.38%.

Regarding `COc1ccccc1C(=O)Nc1cccc(C(=O)OCc2cc(=O)n3c4c(sc3n2)CCCC4)c1`, the “activity change, negative = cytotoxicity” value is inactive: -4.13%.

Turning to `COc1ccc(NC(=O)CSc2oc(-c3ccco3)nc2S(=O)(=O)c2ccc(C)cc2)c(OC)c1`, the “activity change, negative = cytotoxicity” value is inactive: -7.17%.

Take `CCOc1ccc(NC(=O)Cn2c(=O)n(CC3CCC(C(=O)NCCc4ccccc4)CC3)c(=O)c3ccccc32)cc1` (configuration not stated): the “activity change, negative = cytotoxicity” value was inactive: -0.696%.

On to `COCCCNC(=O)c1nn(C)c2c1CS(=O)(=O)c1ccccc1-2`, for which the “activity change, negative = cytotoxicity” value was inactive: -8.85%.

For `CCc1cccc(NC(=O)Cc2nc(-c3ccc(OC)cc3)no2)c1`, the “activity change, negative = cytotoxicity” value is inactive: 6.32%.

With `Cc1csc2nc(COC(=O)c3cccc(NC(=O)COc4ccccc4Cl)c3)cc(=O)n12`, the “activity change, negative = cytotoxicity” value was inactive: 22.7%.

Take `COCc1cc(C)nc2sc3c(c12)NC(c1ccccc1C(=O)O)N(c1cccc(C(F)(F)F)c1)C3=O` (configuration not stated): the “activity change, negative = cytotoxicity” value is inactive: 0.584%.

In the case of `COc1cc([N+](=O)[O-])ccc1NC(=O)c1nc2ccccc2n(C)c1=O`, the “activity change, negative = cytotoxicity” value is inactive: 7.87%.

As to `O=C(CSc1nnc2[nH]c(=O)cc(-c3ccccc3)n12)Nc1ccc(OC(F)(F)F)cc1`, the “activity change, negative = cytotoxicity” value is inactive: -0.246%.

As for `COc1ccc(CNC(=O)CC2N=C3c4ccccc4N=C(SCC(=O)Nc4ccc(C(C)C)cc4)N3C2=O)cc1` (configuration not stated), the “activity change, negative = cytotoxicity” value is inactive: 3.32%.

Take `COC(=O)CCCn1c(-c2ccc(C)cc2)c(C)n2c3c(=O)n(C)c(=O)n(C)c3nc12`: the “activity change, negative = cytotoxicity” value was inactive: 5.9%.

For `COc1ccc(-c2cn3c(n2)sc2cc(C(=O)NC(C)C45CC6CC(CC(C6)C4)C5)ccc23)cc1` (configuration not stated), the “activity change, negative = cytotoxicity” value is inactive: 9.48%.

On to `CCN1CCSc2ccc(C(=O)NCc3ccc(F)cc3)cc21`, for which the “activity change, negative = cytotoxicity” value was inactive: -3.63%.

For `COc1ccc(CNC(=O)Cn2ncc3c(=O)oc4ccccc4c32)c(OC)c1`, the “activity change, negative = cytotoxicity” value is inactive: -5.28%.

Turning to `Cc1ccc(CNC(=O)CCSCc2cnn(-c3ccccc3)c2-n2cccc2)cc1`, the “activity change, negative = cytotoxicity” value is inactive: 2.05%.

Take `COc1ccc(NCc2cccn2-c2nnc(N3CCOCC3)s2)cc1OC`: the “activity change, negative = cytotoxicity” value was inactive: -1.6%.

`COc1ccc(S(=O)(=O)NCCc2sc(-c3cccnc3)nc2C)cc1OC`: the “activity change, negative = cytotoxicity” value was inactive: 0.155%.

As for `COc1cc(CN(C(=O)c2ccccc2Br)c2ccccn2)cc(OC)c1OC`, the “activity change, negative = cytotoxicity” value was inactive: -14.1%.

`CC(=O)c1c(C)n(S(=O)(=O)c2ccc(Cl)cc2)c2ccc(NS(=O)(=O)c3ccc(Cl)cc3)cc12`: the “activity change, negative = cytotoxicity” value is inactive: 2.2%.

As to `Cc1cc(C)cc(NC(=O)Cn2nc(N3CCN(c4ccccc4)CC3)ccc2=O)c1`, the “activity change, negative = cytotoxicity” value was inactive: -1.28%.

In the case of `CC(C)c1ccc(OCC(=O)Nc2cc(-c3ccccc3)no2)cc1`, the “activity change, negative = cytotoxicity” value was inactive: 29.3%.

For `CCOc1cc2c(cc1OCC)C(CC(=O)OC)N(C(=O)Nc1cc(OC)ccc1OC)CC2` (configuration not stated), the “activity change, negative = cytotoxicity” value is inactive: -22.6%.

Turning to `CCN(CC)C(=O)c1sc2c(c1C)c(=O)n(CCc1ccccc1)c(=O)n2Cc1ccc(C)cc1`, the “activity change, negative = cytotoxicity” value was inactive: -1.22%.

Take `Cc1ccc(NC(=O)CN2C(=O)C(c3ccc(C)cc3)=NC23CCCCCC3)cc1`: the “activity change, negative = cytotoxicity” value is inactive: -28.4%.

With `CCc1ccc(NC(=O)c2cccc(N3CCCS3(=O)=O)c2)cc1`, the “activity change, negative = cytotoxicity” value is inactive: -6.03%.

Regarding `COc1ccc2c(c1)c(=O)c(S(=O)(=O)c1ccc(Cl)cc1)cn2Cc1cc(C)ccc1C`, the “activity change, negative = cytotoxicity” value is inactive: -1.23%.

As for `CC(=O)Nc1ccc(NC(=O)C(NC(=O)C2CCC(C)CC2)C(C)C)cc1` (configuration not stated), the “activity change, negative = cytotoxicity” value is inactive: -2.73%.

As for `CCc1ccccc1NC(=O)c1nn(-c2ccc(C)cc2)c(=O)c2c1c1ccccc1n2C`, the “activity change, negative = cytotoxicity” value was inactive: -2.24%.

For `CC(C)c1cc(C(=O)NCc2ccc(F)cc2)no1`, the “activity change, negative = cytotoxicity” value is inactive: 8.43%.

Take `CCS(=O)(=O)n1nc(-c2ccco2)nc1NCc1ccc(C(C)C)cc1`: the “activity change, negative = cytotoxicity” value was inactive: -11%.

As for `O=C(Nc1ccc(F)cc1)c1ccc(CN2CC(=O)N3CCCCC3C2=O)cc1` (configuration not stated), the “activity change, negative = cytotoxicity” value was inactive: -1.04%.

As for `Cc1ccc(-n2cnc3cc(C(=O)NC4CCCCCC4)ccc32)c(C)c1`, the “activity change, negative = cytotoxicity” value was inactive: -4.4%.

As to `O=C(Nc1ccccc1C(F)(F)F)C1(S(=O)(=O)c2ccc(Cl)cc2)CC1`, the “activity change, negative = cytotoxicity” value was inactive: 1.6%.

Consider `CN1CC(=O)N(CC(=O)Nc2cccc(C#N)c2)c2ccccc2C1=O`, for which the “activity change, negative = cytotoxicity” value was inactive: 15.6%.

For `COc1ccc(OC)c(NC(=O)C2CCCN(S(=O)(=O)c3ccc4[nH]c(=O)ccc4c3)C2)c1` (configuration not stated), the “activity change, negative = cytotoxicity” value was inactive: -6.86%.

For `CC(=O)c1cccc(NC(=O)CCS(=O)(=O)c2ccc3c(c2)n(C)c(=O)c(=O)n3C)c1`, the “activity change, negative = cytotoxicity” value is inactive: -3.95%.

As to `NC(=O)CSc1nc2cc3c(cc2c(=O)n1CCCCCC(=O)NCc1ccc2c(c1)OCO2)OCO3`, the “activity change, negative = cytotoxicity” value is inactive: -9.88%.

`CCCCCCNC(=O)CCc1c(C)nc2nc(-c3cc(OC)cc(OC)c3)nn2c1C`: the “activity change, negative = cytotoxicity” value is inactive: 2.69%.

Turning to `Cc1ccc(C(=O)c2cn(Cc3cc(C)ccc3C)c3nc(C)ccc3c2=O)cc1`, the “activity change, negative = cytotoxicity” value is inactive: -8.21%.

As to `CN(C1CCCCC1)S(=O)(=O)c1ccc2c(c1)c(=O)c(C(=O)N1CCN(c3ccc(F)cc3)CC1)cn2C`, the “activity change, negative = cytotoxicity” value was inactive: 1.25%.

With `CCOCCCNC(=O)C(NC(=O)C1CCC(C)CC1)C(C)C` (configuration not stated), the “activity change, negative = cytotoxicity” value is inactive: 4.98%.

For the molecule `COc1ccc(-c2cn3c(n2)sc2cc(C(=O)NCC(C)c4ccccc4)ccc23)cc1` (configuration not stated), the “activity change, negative = cytotoxicity” value was inactive: 10.2%.

Turning to `Cc1c(Cl)cccc1NC(=O)Nc1nnc(N(C)C2CCCCC2)s1`, the “activity change, negative = cytotoxicity” value is inactive: 1.63%.

For the molecule `Cc1ccc(CCNC(=O)c2cnc3c(C)cccn3c2=O)cc1`, the “activity change, negative = cytotoxicity” value was inactive: 12.1%.

As for `Cc1ccccc1Cn1c(-c2cccs2)nc2ccccc21`, the “activity change, negative = cytotoxicity” value is inactive: -2.14%.

As for `COc1ccc(-c2noc(CN(C(=O)c3ccccc3Cl)C(C)C)n2)cc1`, the “activity change, negative = cytotoxicity” value is inactive: -15.7%.

Source of the values: PubChem BioAssay AID1508642 (National Center for Advancing Translational Sciences (NCATS), 2021).
